The list shows a part of the results.
Tested on: HepG2
Experiment: cytotoxicity call (relative viability < 0.9)
Settings: 10 µM

**Q.** For `COc1ccc(CN(C)C[C@@H]2OCCCC[C@H](C)Oc3ccc(NS(=O)(=O)c4ccc(F)cc4)cc3C(=O)N([C@@H](C)CO)C[C@@H]2C)cc1`, which cytotoxicity call is on record?
**A.** Its cytotoxicity call is “inactive”.

**Q.** Which cytotoxicity call does the source give for `C[C@H](CO)N1C[C@H](C)[C@H](CN(C)Cc2ccc(Oc3ccccc3)cc2)Oc2c(NC(=O)C3CCOCC3)cccc2C1=O` here?
**A.** The cytotoxicity call was “inactive”.

**Q.** With `C[C@H]1CCCCO[C@@H](CN(C)C(=O)Nc2ccc(F)cc2)[C@@H](C)CN([C@@H](C)CO)C(=O)c2cc(NS(=O)(=O)c3ccc(F)cc3)ccc2O1` as the compound, how does the cytotoxicity call read?
**A.** Its cytotoxicity call is “inactive”.

**Q.** How did the cytotoxicity call turn out when `C[C@@H]1CCCCO[C@H](CN(C)Cc2ccccc2)[C@@H](C)CN([C@H](C)CO)C(=O)c2cc(NC(=O)c3ccccc3)ccc2O1` was run?
**A.** The cytotoxicity call was “inactive”.

**Q.** `C[C@@H]1CCCCO[C@@H](CN(C)C(=O)NC2CCCCC2)[C@H](C)CN([C@H](C)CO)C(=O)c2cc(NS(=O)(=O)c3ccc(F)cc3)ccc2O1` was tested. Which cytotoxicity call did it give?
**A.** Its cytotoxicity call is “inactive”.

**Q.** How did the cytotoxicity call turn out when `C[C@@H]1CN([C@H](C)CO)C(=O)Cc2cc(NC(=O)Nc3ccc(C(F)(F)F)cc3)ccc2O[C@@H]1CN(C)S(C)(=O)=O` was run?
**A.** The cytotoxicity call was “inactive”.

**Q.** `C[C@H](CO)N1C[C@H](C)[C@H](CN(C)C(=O)Nc2cccc3ccccc23)Oc2ccc(NS(=O)(=O)c3ccc(Cl)cc3)cc2C1=O` was tested. Which cytotoxicity call did it give?
**A.** The cytotoxicity call was “inactive”.

**Q.** With `Nc1ncnc(NC[C@H]2CCCO2)c1[N+](=O)[O-]` as the compound, how does the cytotoxicity call read?
**A.** The cytotoxicity call was “inactive”.

**Q.** With `CC(=O)N(O)CCCCCNC(=O)CC(O)(CC(=O)NCCCCCN(O)C(C)=O)C(=O)O` as the compound, how does the cytotoxicity call read?
**A.** Its cytotoxicity call is “inactive”.

**Q.** With `COc1ccc(S(=O)(=O)N(C)C[C@@H]2OCCCC[C@@H](C)Oc3ccc(NC(=O)Nc4cccc5ccccc45)cc3C(=O)N([C@@H](C)CO)C[C@H]2C)cc1` as the compound, how does the cytotoxicity call read?
**A.** The cytotoxicity call was “inactive”.

**Q.** `O=C(NC1(c2ccccc2)CC1)c1c(CN2CCC(N3CCCCC3)CC2)c(-c2cccc(C(F)(F)F)c2)nc2cc(Br)ccc12` was tested. Which cytotoxicity call did it give?
**A.** The cytotoxicity call was “active”.

**Q.** `C[C@@H]1CN([C@@H](C)CO)C(=O)c2cc(NC(=O)Nc3ccc(C(F)(F)F)cc3)ccc2O[C@@H]1CN(C)C(=O)NC1CCCCC1` was tested. Which cytotoxicity call did it give?
**A.** The cytotoxicity call was “active”.

**Q.** Which cytotoxicity call does the source give for `O=C(C[C@@H]1C=C[C@H](NC(=O)C2CCC2)[C@H](CO)O1)NCCCN1CCOCC1` here?
**A.** Its cytotoxicity call is “inactive”.

**Q.** For `N#Cc1ccccc1C#CCO`, which cytotoxicity call is on record?
**A.** Its cytotoxicity call is “inactive”.

**Q.** How did the cytotoxicity call turn out when `COC[C@@H]1CNN1C(=O)OC(C)(C)C` was run?
**A.** The cytotoxicity call was “inactive”.

Tested on: S. aureus RN4220
Experiment: growth inhibition call (relative growth <= 0.2)
Settings: 50 µM

**Q.** `C[C@@H]1CN([C@@H](C)CO)C(=O)c2cccc(NC(=O)NC3CCCCC3)c2O[C@@H]1CN(C)C(=O)Nc1ccc(C(F)(F)F)cc1` was tested. Which growth inhibition call did it give?
**A.** The growth inhibition call was “inactive”.

**Q.** How did the growth inhibition call turn out when `COc1ccc(S(=O)(=O)N(C)C[C@H]2Oc3c(NS(=O)(=O)c4ccc(C)cc4)cccc3C(=O)N([C@@H](C)CO)C[C@@H]2C)cc1` was run?
**A.** Its growth inhibition call is “inactive”.

**Q.** `Cc1ccc(S(=O)(=O)Nc2ccc3c(c2)C(=O)N([C@@H](C)CO)C[C@H](C)[C@@H](CN(C)S(C)(=O)=O)OCCCC[C@H](C)O3)cc1` was tested. Which growth inhibition call did it give?
**A.** The growth inhibition call was “inactive”.

**Q.** Which growth inhibition call does the source give for `Cc1ccccc1S(=O)(=O)N1C[C@@H](O)COC[C@@H]2O[C@H](CC(=O)NCCc3ccncc3)CC[C@H]21` here?
**A.** The growth inhibition call was “inactive”.

**Q.** How did the growth inhibition call turn out when `Cc1noc(C)c1NC(=O)Nc1ccc2c(c1)C(=O)N([C@H](C)CO)C[C@@H](C)[C@@H](CN(C)S(=O)(=O)c1cccs1)OCCCC[C@@H](C)O2` was run?
**A.** The growth inhibition call was “inactive”.

**Q.** For `O=C(O)C[C@@H](O)C(=O)O`, which growth inhibition call is on record?
**A.** Its growth inhibition call is “inactive”.

**Q.** For `C[C@@H]1CN([C@@H](C)CO)S(=O)(=O)c2ccc(C#CC3(O)CCCC3)cc2O[C@@H]1CN(C)C(=O)Cc1cccnc1`, which growth inhibition call is on record?
**A.** The growth inhibition call was “inactive”.

**Q.** Which growth inhibition call does the source give for `C=CC[C@H](CC(=O)NCCO)C(=O)N[C@@H](COC(=O)[C@H](CC=C)CC(=O)OC(C)(C)C)Cc1ccccc1` here?
**A.** Its growth inhibition call is “inactive”.

**Q.** Which growth inhibition call does the source give for `Cc1ccc(S(=O)(=O)N(C)C[C@H]2OCCCC[C@H](C)Oc3ccc(NS(=O)(=O)c4ccc(Cl)cc4)cc3C(=O)N([C@@H](C)CO)C[C@@H]2C)cc1` here?
**A.** The growth inhibition call was “inactive”.

**Q.** How did the growth inhibition call turn out when `CC(C)C[C@H](NC(=O)[C@H](CCCCN)NC(=O)[C@H](CCCNC(=N)N)NC(=O)[C@H](C)NC(=O)[C@H](CO)NC(=O)[C@H](CCCCN)NC(=O)[C@H](CCCNC(=N)N)NC(=O)[C@H](C)NC(=O)CNC(=O)[C@@H](NC(=O)[C@H](Cc1ccccc1)NC(=O)CNC(=O)CNC(=O)[C@@H](N)Cc1ccccc1)[C@@H](C)O)C(=O)N[C@@H](C)C(=O)N[C@@H](CC(N)=O)C(=O)N[C@@H](CCC(N)=O)C(=O)O` was run?
**A.** The growth inhibition call was “inactive”.

**Q.** With `Cc1nnc(=O)[nH]c1NNc1ccccc1` as the compound, how does the growth inhibition call read?
**A.** Its growth inhibition call is “inactive”.

**Q.** With `O=C(N[C@H](c1ccc(F)cc1)c1ccc2ccccc2n1)C1CCN(CCOc2ccc(Cl)cc2)CC1` as the compound, how does the growth inhibition call read?
**A.** The growth inhibition call was “active”.

**Q.** Which growth inhibition call does the source give for `COc1ccc(S(=O)(=O)N[C@@H]2C=C[C@@H](CC(=O)NCCc3ccncc3)O[C@H]2CO)cc1` here?
**A.** Its growth inhibition call is “inactive”.

**Q.** `COc1ccc(NC(=O)N(C)C[C@@H]2Oc3c(NC(=O)c4ccc(-c5nccs5)cc4)cccc3C(=O)N([C@@H](C)CO)C[C@H]2C)cc1` was tested. Which growth inhibition call did it give?
**A.** Its growth inhibition call is “inactive”.

**Q.** `CCS(=O)(=O)N1C[C@]2(CN(Cc3cc(ccc3F)F)C2)c2c(n(c3cc(ccc23)OC)C)[C@@H]1CO` was tested. Which growth inhibition call did it give?
**A.** Its growth inhibition call is “inactive”.

**Q.** `C[C@@H]1CN([C@@H](C)CO)C(=O)c2cc(NC(=O)c3ccncc3)ccc2O[C@@H](C)CCCCO[C@H]1CN(C)S(C)(=O)=O` was tested. Which growth inhibition call did it give?
**A.** Its growth inhibition call is “inactive”.

**Q.** With `COc1ccc(NC(=O)N(C)C[C@@H]2Oc3c(NC(=O)CCCCCC(=O)Nc4ccccc4N)cccc3C(=O)N([C@@H](C)CO)C[C@@H]2C)cc1` as the compound, how does the growth inhibition call read?
**A.** Its growth inhibition call is “inactive”.

**Q.** `C[C@@H]1CN([C@H](C)CO)C(=O)CCCn2nncc2CO[C@@H]1CN(C)C(=O)Nc1ccc(N2CCCCC2)cc1` was tested. Which growth inhibition call did it give?
**A.** Its growth inhibition call is “inactive”.

**Q.** `C[C@H](CO)N1C[C@H](C)[C@H](CN(C)S(=O)(=O)c2cn(C)cn2)Oc2c(NC(=O)c3nc4ccccc4s3)cccc2C1=O` was tested. Which growth inhibition call did it give?
**A.** The growth inhibition call was “inactive”.

**Q.** For `C[C@@H]1CN([C@H](C)CO)C(=O)Cc2cc(NC(=O)c3ccncc3)ccc2O[C@H]1CN(C)S(=O)(=O)c1cccs1`, which growth inhibition call is on record?
**A.** Its growth inhibition call is “inactive”.

**Q.** `Clc1ccc(-c2cc[nH]n2)cc1` was tested. Which growth inhibition call did it give?
**A.** Its growth inhibition call is “inactive”.

**Q.** For `CNC[C@@H]1OCCCC[C@@H](C)Oc2ccc(NS(=O)(=O)c3c(C)noc3C)cc2C(=O)N([C@@H](C)CO)C[C@H]1C`, which growth inhibition call is on record?
**A.** The growth inhibition call was “inactive”.

**Q.** `COc1ccc(NC(=O)Nc2ccc3c(c2)C(=O)N([C@@H](C)CO)C[C@@H](C)[C@@H](CN(C)Cc2ccc(Cl)c(Cl)c2)OCCCC[C@@H](C)O3)cc1` was tested. Which growth inhibition call did it give?
**A.** Its growth inhibition call is “inactive”.

**Q.** For `Cc1ccc(S(=O)(=O)N(C)C[C@@H]2OCCCC[C@@H](C)Oc3ccc(NC(=O)Nc4ccc5c(c4)OCO5)cc3C(=O)N([C@@H](C)CO)C[C@@H]2C)cc1`, which growth inhibition call is on record?
**A.** Its growth inhibition call is “inactive”.

**Q.** With `C[C@H]1CN([C@@H](C)CO)C(=O)c2cc(-c3cccc(C(=O)N(C)C)c3)cnc2O[C@@H]1CN(C)S(=O)(=O)c1ccccc1` as the compound, how does the growth inhibition call read?
**A.** Its growth inhibition call is “inactive”.

**Q.** With `COc1ccc(CN(C)C[C@@H]2OCCCC[C@H](C)Oc3ccc(NS(=O)(=O)c4ccc(F)cc4)cc3C(=O)N([C@@H](C)CO)C[C@@H]2C)cc1` as the compound, how does the growth inhibition call read?
**A.** The growth inhibition call was “inactive”.

**Q.** With `C[C@H](CO)N1C[C@H](C)[C@H](CN(C)Cc2ccc(Oc3ccccc3)cc2)Oc2c(NC(=O)C3CCOCC3)cccc2C1=O` as the compound, how does the growth inhibition call read?
**A.** Its growth inhibition call is “inactive”.

**Q.** Which growth inhibition call does the source give for `C[C@H]1CCCCO[C@@H](CN(C)C(=O)Nc2ccc(F)cc2)[C@@H](C)CN([C@@H](C)CO)C(=O)c2cc(NS(=O)(=O)c3ccc(F)cc3)ccc2O1` here?
**A.** The growth inhibition call was “inactive”.

**Q.** Which growth inhibition call does the source give for `C[C@@H]1CCCCO[C@H](CN(C)Cc2ccccc2)[C@@H](C)CN([C@H](C)CO)C(=O)c2cc(NC(=O)c3ccccc3)ccc2O1` here?
**A.** Its growth inhibition call is “inactive”.

**Q.** How did the growth inhibition call turn out when `C[C@@H]1CCCCO[C@@H](CN(C)C(=O)NC2CCCCC2)[C@H](C)CN([C@H](C)CO)C(=O)c2cc(NS(=O)(=O)c3ccc(F)cc3)ccc2O1` was run?
**A.** The growth inhibition call was “inactive”.

**Q.** With `C[C@@H]1CN([C@H](C)CO)C(=O)Cc2cc(NC(=O)Nc3ccc(C(F)(F)F)cc3)ccc2O[C@@H]1CN(C)S(C)(=O)=O` as the compound, how does the growth inhibition call read?
**A.** Its growth inhibition call is “inactive”.

**Q.** How did the growth inhibition call turn out when `C[C@H](CO)N1C[C@H](C)[C@H](CN(C)C(=O)Nc2cccc3ccccc23)Oc2ccc(NS(=O)(=O)c3ccc(Cl)cc3)cc2C1=O` was run?
**A.** The growth inhibition call was “inactive”.

**Q.** For `Nc1ncnc(NC[C@H]2CCCO2)c1[N+](=O)[O-]`, which growth inhibition call is on record?
**A.** The growth inhibition call was “inactive”.

**Q.** How did the growth inhibition call turn out when `CC(=O)N(O)CCCCCNC(=O)CC(O)(CC(=O)NCCCCCN(O)C(C)=O)C(=O)O` was run?
**A.** The growth inhibition call was “inactive”.

**Q.** With `COc1ccc(S(=O)(=O)N(C)C[C@@H]2OCCCC[C@@H](C)Oc3ccc(NC(=O)Nc4cccc5ccccc45)cc3C(=O)N([C@@H](C)CO)C[C@H]2C)cc1` as the compound, how does the growth inhibition call read?
**A.** The growth inhibition call was “inactive”.

**Q.** For `O=C(NC1(c2ccccc2)CC1)c1c(CN2CCC(N3CCCCC3)CC2)c(-c2cccc(C(F)(F)F)c2)nc2cc(Br)ccc12`, which growth inhibition call is on record?
**A.** Its growth inhibition call is “inactive”.

**Q.** With `C[C@@H]1CN([C@@H](C)CO)C(=O)c2cc(NC(=O)Nc3ccc(C(F)(F)F)cc3)ccc2O[C@@H]1CN(C)C(=O)NC1CCCCC1` as the compound, how does the growth inhibition call read?
**A.** Its growth inhibition call is “inactive”.

**Q.** `O=C(C[C@@H]1C=C[C@H](NC(=O)C2CCC2)[C@H](CO)O1)NCCCN1CCOCC1` was tested. Which growth inhibition call did it give?
**A.** Its growth inhibition call is “inactive”.

**Q.** For `N#Cc1ccccc1C#CCO`, which growth inhibition call is on record?
**A.** Its growth inhibition call is “inactive”.

**Q.** With `COC[C@@H]1CNN1C(=O)OC(C)(C)C` as the compound, how does the growth inhibition call read?
**A.** The growth inhibition call was “inactive”.
